The target in experiment [1] is T1, human 4-1BB on the surface of HEK293-Hu4-1BB cells (human, UniProt Q07011 24-255).
T1 construct: whole, on cells; also called CD137; human 4-1BB antigen
Put plainly: FACS on HEK293 cells highly expressing human 4-1BB. The source says: (§1) HEK293-Hu4-1BB cells were obtained by transient transfection of HEK293 cells (ATCC CRL-1573) with a gene expressing human 4-1BB protein or polypeptide (CD137 cDNA ORF Clone, Human, C-OFPSpark tag; purchased from Sino Biological, Cat #HG10041-ACR). The cell culture medium was DMEM (Gibco, Cat #11995065) containing 10% fetal bovine serum. The experimental medium was sterile PBS (phosphate-buffered saline, pH 7.40) containing 2% fetal bovine serum. HEK293-Hu4-1BB cells were washed with the experimental medium twice and seeded into a 96-well U-bottom plate at 1×10⁵ HEK293-Hu4-1BB cells per well. Different concentrations of the anti-4-1BB single-domain antibody VHH-Fc samples to be tested were added. The cells were incubated at 4° C. for 1 h and then washed with the experimental medium twice. Then the goat anti-human IgG (H+L) Alexa Fluor 488 antibody (Thermo, Cat #A11013) was added. After two washes, fluorescence signal values were measured using a flow cytometer. Urelumab was used as a positive control.
The antigen-binding activity of the humanized antibodies was measured using a FACS assay as described in Example 2.

The target of experiment [2] is T1, human 4-1BB on the surface of …. Put plainly: FACS on HEK293 cells highly expressing human 4-1BB.
Text: as §1
A comparison of the antigen-binding activity of C5_V2 and C5_V2-YTI was made using a FACS assay as described in Example 5.
The source holds these as a separate data set.

For experiment [3] the target is unchanged. Put plainly: cell-based or functional assay.
The target is the same in experiment [4]. Put plainly: cell-based or functional assay. The source holds these as a separate data set.

Like-named read-outs stand apart in the source and are kept apart here.

By EC50 is commonly meant the concentration at which the effect is half-maximal. A lower EC50 goes with a more potent agent.

T1 sequence (Q07011 24-255): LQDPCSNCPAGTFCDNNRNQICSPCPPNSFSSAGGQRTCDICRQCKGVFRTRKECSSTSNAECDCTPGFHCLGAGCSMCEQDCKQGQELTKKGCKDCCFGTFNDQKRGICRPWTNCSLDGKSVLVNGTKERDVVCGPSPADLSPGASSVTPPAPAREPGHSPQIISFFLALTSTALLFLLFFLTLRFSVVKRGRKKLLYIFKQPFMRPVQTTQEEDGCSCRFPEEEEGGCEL

B1: C5_V2 linked to human IgG1-Fc (SEQ ID NO: 10) (Fc fusion)
chain: QVQLVESGGGLVQPGGSLRLSCSASGFTFSSYAMSWVRQAPGKGLEWVSDINSGGESTFYEDSVKGRFTISRDNAKNTLYLQMNSLRAEDTAVYYCAKHPLTFTIATMNDYDYWGQGTLVTVSS[human IgG1 Fc with changes not listed]
notes: Humanized VHH-Fc fusion
For the molecule B1, in experiment [1], a half-maximal effect (EC50) was put at 1.62 nM and the Maximal fluorescence value is 1030. In experiment [2], the EC50 amounted to 0.98 nM and the Maximal fluorescence value was determined as 53700. Besides, in experiment [3], the “Factor of variation in Emax, FcγRIIb-mediated activation of HEK293-4-1BB cells” value came out at 2.02 fold and the “Factor of variation in Emax, activation of HEK293-4-1BB cells” value was found to be 1.37 fold.

B2: C5_V2-YTI linked to human IgG1-Fc (SEQ ID NO: 10) (Fc fusion)
chain: QVQLVESGGGLVQPGGSLRLSCSASGFTFSSYAMSWVRQAPGKGLEWVSDINSGGESTFYEDSVKGRFTISRDNAKNTLYLQMNSLRAEDTAVYYCAKHPLTYTIATMNDYDYWGQGTLVTVSS[human IgG1 Fc with changes not listed]
notes: C5_V2 with F99Y (Kabat) in CDR3, as VHH-Fc fusion
Turning to B2, in experiment [2], the EC50 is 0.62 nM and the Maximal fluorescence value was 53800.

B3: C5_V1 linked to human IgG1-Fc (SEQ ID NO: 10) (Fc fusion)
chain: QVQLVESGGGLVQPGGSLRLSCSASGFTFSSYAMSWVRQAPGKGLEWVSDINSGGESTFYEDSVKGRFTISRDNAKNTLYLQMNSLRAEDTAVYYCARHPLTFTIATMNDYDYWGQGTLVTVSS[human IgG1 Fc with changes not listed]
notes: Humanized VHH-Fc fusion
In experiment [1], B3 came in with an EC50 of 3.79 nM and a Maximal fluorescence value of 1040. For the same molecule, in experiment [3], the “Factor of variation in Emax, FcγRIIb-mediated activation of HEK293-4-1BB cells” value turned out to be 2.28 fold and the “Factor of variation in Emax, activation of HEK293-4-1BB cells” value was 1.14 fold.

B4: C5_V3 linked to human IgG1-Fc (SEQ ID NO: 10) (Fc fusion)
chain: QVQLVESGGGLVQPGGSLRLSCSASGFTFSSYAMSWVRQAPGKGLEWVSDINSGGESTFYEDSVKGRFTISRDNAKNTLYLQMNSLKPEDTAVYYCAKHPLTFTIATMNDYDYWGQGTLVTVSS[human IgG1 Fc with changes not listed]
notes: Humanized VHH-Fc fusion
With B4, in experiment [1], the EC50 amounted to 1.65 nM.

B5: C5-Fc (Fc fusion)
chain: QVQLVESGGGLVQPGGSLRLSCSASGFTFSSYAMSWVRQAPGKGLEWVSDINSGGESTFYEDSVKGRFTISRDNAKNTLYLQMNSLKPEDTAVYYCAKHPLTFTIATMNDYDYWGQGTQVTVSS[human IgG1 Fc with changes not listed]
notes: also called anti-4-1BB single-domain antibody C5 (VHH-Fc)
For B5, it took 3.2 nM to reach a half-maximal effect in experiment [1] (EC50). For the same molecule, in experiment [4], the “EC50, 4-1BB/NF-κB luciferase reporter, FcγRIIb cross-linking” value is about 0.814 nM; the “Emax, 4-1BB/NF-κB luciferase reporter, FcγRIIb cross-linking” value is 10 relative to antibody-free group; the “Emax, 4-1BB/NF-κB luciferase reporter, no FcγRIIb cross-linking” value is 2.26 relative to antibody-free group.

The values above are taken from patent publication US20250026842A1 (JIANGSU HENGRUI PHARMACEUTICALS, published 2025).
